The other results are listed elsewhere or left out. These are noisy estimates, calculated here from bound and input reads.

The values that follow come from the BET-seq Pho4 binding data (Le et al. 2018).

The target of this test is T1, Pho4 (S. cerevisiae) (UniProt P07270).
T1 sequence: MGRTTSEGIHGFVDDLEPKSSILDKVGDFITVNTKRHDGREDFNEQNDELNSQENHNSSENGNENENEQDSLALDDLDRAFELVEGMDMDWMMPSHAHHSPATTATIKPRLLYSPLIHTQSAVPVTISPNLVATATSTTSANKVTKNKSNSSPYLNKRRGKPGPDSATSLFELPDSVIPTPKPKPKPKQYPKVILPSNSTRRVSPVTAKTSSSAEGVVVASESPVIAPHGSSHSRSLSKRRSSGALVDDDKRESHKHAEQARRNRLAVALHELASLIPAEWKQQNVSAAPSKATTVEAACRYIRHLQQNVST
As to the kind of experiment: relative binding free energy (BET-seq); higher = weaker binding. The conditions noted are these: reference: library average.
On to GGATGCACGTGTGCGG, for which the “relative binding free energy” value is 0.209 kJ/mol. In the case of TTAAGCACGTGTATTT it was -0.0837 kJ/mol. In the case of CGGTTCACGTGGTATC it was 1.46 kJ/mol; in that of GTGTGCACGTGGCTTT, -0.502 kJ/mol. As to GTATGCACGTGTTAAA, the “relative binding free energy” value is -0.0418 kJ/mol. In the case of TAGGACACGTGTCATG it was 0.502 kJ/mol. In the case of GTTAACACGTGAAGGT it was 1.92 kJ/mol. In the case of ATTCTCACGTGGGTAT it was 0.377 kJ/mol; in that of GGGGCCACGTGGTAAG, -0.502 kJ/mol; in that of GCTCGCACGTGAGGGT, 1 kJ/mol. Take TTGGTCACGTGGGCCT: the “relative binding free energy” value turned out to be 0.293 kJ/mol.

Take TCGTTCACGTGTAGTA: the “relative binding free energy” value was 0.92 kJ/mol.

Regarding TAAGGCACGTGTTACT, the “relative binding free energy” value is -0.418 kJ/mol. The figure for TCGGTCACGTGGGCAG is -0.209 kJ/mol; for GGTATCACGTGGTGAG it is 0.293 kJ/mol. Regarding GAGTGCACGTGGAGTC, the “relative binding free energy” value was -0.502 kJ/mol. In the case of TGCTTCACGTGTACGG it was 0.544 kJ/mol; in that of AGGGTCACGTGAAAGT, 0.92 kJ/mol. In the case of TGCTTCACGTGAATTT it was 1.3 kJ/mol; in that of GGATACACGTGACGGG, 1.97 kJ/mol; in that of GAATACACGTGGGGGG, 0.0837 kJ/mol. As to TTATCCACGTGTGAGT, the “relative binding free energy” value was 0.251 kJ/mol. For the sequence ATAATCACGTGGCTGG, the “relative binding free energy” value amounted to 0.126 kJ/mol. On to AGCTTCACGTGCGAGG, for which the “relative binding free energy” value was 0.879 kJ/mol. The figure for ATGTTCACGTGGTTAC is 0.962 kJ/mol; for ATATTCACGTGTCAGG it is 1.21 kJ/mol; for TTAGTCACGTGTATGC it is 0.251 kJ/mol. As to GTGATCACGTGGTAAA, the “relative binding free energy” value is 0.795 kJ/mol. In the case of AGTAACACGTGGCGAG it was 0 kJ/mol. The figure for TTGTTCACGTGGGAGA is 1.26 kJ/mol; for ATTACCACGTGGGGTT it is -0.879 kJ/mol. In the case of ACTTGCACGTGTTTGG it was 0 kJ/mol. On to AGTTGCACGTGTTGCG, for which the “relative binding free energy” value was 0.335 kJ/mol. In the case of ATTAGCACGTGCAGGG it was -0.92 kJ/mol; in that of CATAGCACGTGGGTAG, -0.711 kJ/mol. The figure for TGAGGCACGTGCTAGT is -0.92 kJ/mol. In the case of GTATGCACGTGGGGGA it was -0.669 kJ/mol. Turning to TAGGCCACGTGGGTTT, the “relative binding free energy” value was -0.544 kJ/mol. With TAAATCACGTGATGAT, the “relative binding free energy” value worked out at 1.09 kJ/mol. The figure for GGGTACACGTGGGGCT is -0.167 kJ/mol; for CACGTCACGTGATGGG it is 0.92 kJ/mol; for AGTTGCACGTGATTCG it is 0.628 kJ/mol.

Consider TGGTACACGTGATAGA, for which the “relative binding free energy” value was determined as 0.837 kJ/mol. Consider TAAGGCACGTGTCGAG, for which the “relative binding free energy” value was -0.209 kJ/mol. In the case of CGTAACACGTGGGCGG, the “relative binding free energy” value is -1.13 kJ/mol. In the case of TCGTTCACGTGTGCTG it was 0.795 kJ/mol; in that of GGTTGCACGTGTGCAG, -0.335 kJ/mol.

For AAGTGCACGTGTTCTT, the “relative binding free energy” value was found to be 0.293 kJ/mol. In the case of TTTTGCACGTGAGTAG, the “relative binding free energy” value was 0.418 kJ/mol. The figure for TATAACACGTGGATGT is -0.628 kJ/mol; for CAAATCACGTGGGGTG it is 0.209 kJ/mol; for GTAAGCACGTGAGGCA it is 1.21 kJ/mol. The figure for TGGTGCACGTGAGAGC is 0.837 kJ/mol; for ATGGGCACGTGTGTGC it is -0.544 kJ/mol; for TTAATCACGTGATCGT it is 0.962 kJ/mol. For GAGGACACGTGGGGCT, the “relative binding free energy” value came to 0 kJ/mol. The figure for GTATCCACGTGTTGGA is 0.251 kJ/mol; for GTGTTCACGTGGGTGA it is 0.544 kJ/mol. For the sequence TCATGCACGTGTTGTG, the “relative binding free energy” value was -0.0837 kJ/mol. The figure for TTTATCACGTGATGTA is 1.21 kJ/mol; for TGATGCACGTGGAGGA it is 0.293 kJ/mol; for GTTATCACGTGTGCAT it is 1.09 kJ/mol.

On to AAGGACACGTGAGTAG, for which the “relative binding free energy” value came to 0.92 kJ/mol. The figure for GGATCCACGTGGTCGG is 0.0418 kJ/mol. The figure for TTGAACACGTGTGGAA is 0.795 kJ/mol; for AGGATCACGTGTTTTG it is 0.795 kJ/mol. In the case of TCATCCACGTGGGGGT it was -0.46 kJ/mol; in that of AAGGTCACGTGCAATG, 0.711 kJ/mol; in that of TGGTTCACGTGGGAGT, 0.711 kJ/mol. Turning to GGTGACACGTGAATGT, the “relative binding free energy” value was 1.46 kJ/mol. In the case of GTATTCACGTGCCGTT it was 1.3 kJ/mol; in that of GTAGTCACGTGCAGAT, 0.753 kJ/mol. The figure for CGATCCACGTGGGGGG is -0.795 kJ/mol; for CCGGGCACGTGGTTGA it is -0.126 kJ/mol; for TTGTACACGTGATTTA it is 1.42 kJ/mol. Take GTGGACACGTGATGGA: the “relative binding free energy” value was 0.669 kJ/mol.

Turning to TGGTGCACGTGGGCGC, the “relative binding free energy” value is -0.669 kJ/mol. In the case of TTTGGCACGTGATAAC it was 0.0837 kJ/mol; in that of GGTATCACGTGCATGG, 0.669 kJ/mol; in that of CGAGGCACGTGTAAGT, 0.167 kJ/mol.

For TAAGGCACGTGCGTGA, the “relative binding free energy” value is -0.669 kJ/mol. In the case of AGTAGCACGTGTAGTG it was -0.377 kJ/mol.

Regarding TGTTTCACGTGCCGGG, the “relative binding free energy” value is 1.3 kJ/mol. In the case of AACGGCACGTGGCGGG it was -0.837 kJ/mol. With ATTGTCACGTGAGTGG, the “relative binding free energy” value is 0.962 kJ/mol. In the case of GCGGCCACGTGGGGGA it was -0.837 kJ/mol; in that of CGAGGCACGTGAGGAG, 1.17 kJ/mol; in that of CTAGGCACGTGCTGGG, -1.21 kJ/mol. With TTTGTCACGTGGGAAA, the “relative binding free energy” value is 0.293 kJ/mol. The figure for ATAGACACGTGTCTTG is 0.377 kJ/mol. The figure for CGCGGCACGTGATGGT is -0.167 kJ/mol; for AAAGTCACGTGTAGTG it is 0.753 kJ/mol; for AGTTACACGTGAGGCT it is 1.34 kJ/mol.

For CTTCGCACGTGTTTTG, the “relative binding free energy” value was -0.126 kJ/mol.

As for GTTTCCACGTGGCTGG, the “relative binding free energy” value was 0.502 kJ/mol.

On to TGTTACACGTGGTTAA, for which the “relative binding free energy” value was determined as 0.418 kJ/mol. The figure for TTAATCACGTGTTTGT is 0.544 kJ/mol; for TGGTACACGTGCTGGA it is 0.209 kJ/mol. The figure for GGGAGCACGTGGAATG is -0.209 kJ/mol; for AAGATCACGTGGTTTA it is 0.293 kJ/mol; for GTAGTCACGTGATGTT it is 1.3 kJ/mol. In the case of GTGGCCACGTGATGGG it was 0.586 kJ/mol; in that of TTCGACACGTGTGTTA, -0.126 kJ/mol. With CTTATCACGTGTTTAG, the “relative binding free energy” value is 0.837 kJ/mol. The figure for CAGGGCACGTGGAGAG is -0.544 kJ/mol; for TTTTACACGTGGGGTA it is -0.126 kJ/mol; for TTAGTCACGTGGGCTA it is -0.0837 kJ/mol. In the case of TGGTTCACGTGTGGTC it was 1.26 kJ/mol.

For the sequence GAATTCACGTGTTTTG, the “relative binding free energy” value was determined as 1.13 kJ/mol. The figure for TCGTACACGTGGATTT is 0.669 kJ/mol; for GGGATCACGTGGGGGC it is 0.418 kJ/mol; for GGATTCACGTGCAGGA it is 1.26 kJ/mol. For TGCTGCACGTGCGGAG, the “relative binding free energy” value was -0.209 kJ/mol. In the case of TGGTTCACGTGCGGTG it was 1.26 kJ/mol; in that of GCGATCACGTGTTGTG, 0.669 kJ/mol.
